# Experimental data: the supplement of paper PMC11417369
# This is one part of the list.
# Test system: PfAP2-HC AP2 domain (GST-tagged)
# Assay: gcPBM binding intensity (ln(normalized median fluorescence intensity)); higher = stronger DNA binding
# Method in brief: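 Binding intensity is the highest Masliner-normalised natural-log median intensity over replicate spots in either probe orientation. To obtain it, GST-tagged P. falciparum DNA-binding domains made in E. coli were incubated for 1 h on an Agilent 4 × 180k array of primer-extended double-stranded 36-bp intergenic genomic probes plus negative controls. Detection used Alexa488 anti-GST antibody with scanning at 488 nm.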
row,Sequence,gcPBM binding intensity (ln)
1,AATGGTAATCCACATACACACACACCGACACATATA [CACACA_site8876],11.1
2,ATATATACAACTAAAGAACACACATCATTGTTCATT [CACACA_site9224],9.94
3,AAACAATTTTTTAAAAGTACTTGAAAATTGTGAAAT [XGTACX_site2461],9.63
4,GAAAGGACAAGAATAGTGCACATGCAATGTTATTTT [GTGCAC_site9985],10
5,ACAAAATTTTTAAGAACACACAAAAATGTACTATCG [CACACA_site2550],9.66
6,AATCATGCTCCGGAAAGTACATAAATAAATAAATAA [XGTACX_site1690],9.56
7,CACATACACATACAAACACACATTATGTATATATAT [CACACA_site1599],10.2
8,AAAAAAAAAAAACATACACACATACATACATATATA [CACACA_site8222],10.6
9,CATATATAAATATGTACACACATATGTATGATCTCA [CACACA_site3868],9.93
10,TTATTTATAAGTAATATTATATATTCTTTTAATACA [CACACA_negctrl_site471],9.44
11,TAAAATTTTTGTTTTTGTACGAAACATCAATTTTAC [XGTACX_site4963],9.65
12,TTCTATATATTTGGAAGTACATTATATTTATTTTTT [XGTACX_site3172],9.65
13,AATGGTATAAACAATACACACATAATATAAATATTG [CACACA_site6878],9.88
14,TTATATATAAATGTGTGTACTTATAAAATAATCATT [XGTACX_site5370],9.68
15,AGATCTATTATTTTTTGTACTTATATATAAACTTAA [XGTACX_site1737],9.64
16,ATAGGCAAAAAGTGTACACATTCATTTATATAAATA [CACACA_site4480],9.8
17,AGTGAATATCTAAAATGTACATAAATAAATAAATAA [XGTACX_site8293],9.73
18,CGTTATATCAAAGGAGTGCATTATGAATACGTTTTA [GTGCAC_site9837],9.57
19,TTAAAATTTTTCAAAAGTACATAAATAATATATATT [XGTACX_site4694],9.32
20,AATATATTATATATATGTACATAATGTGTAATACCT [XGTACX_site2845],9.77
21,TTTATTTGTTCATGCGTGCACTTGATAACAATGTAC [GTGCAC_site9561],9.63
22,GGAAAAAAATATAAAAGTACTTTTTATTTATTTTAT [XGTACX_site7418],9.53

row,Sequence,gcPBM binding intensity (ln)
1,TTTTTTTTTGTTAAAGTGCATATATTAAATTTTCCT [GTGCAC_site9677],9.47
2,AAAAAAAATTCATATTGTACTTTTAAATTAAAGAAA [XGTACX_site4521],9.28
3,AAATTTTTTGTTCAATGTACTTTTTTATTATATTTT [XGTACX_site5298],9.71
4,ATTTTTTAAATTTAAACACACATTTTGTATATGTTT [CACACA_site1654],9.94
5,GATATATAATATAATACACACATTTTATGAATGTAA [CACACA_site24],9.81
6,TCTACTATTATATATTGTACAAATGATACTTATATT [XGTACX_site1819],9.74
7,AAAAAAAAAAAACATACACACATACATACAGATATA [CACACA_site4681],10.1
8,TTTCACTACACAAATACACACAAAAATATATGTGCA [CACACA_site2632],9.8
9,TTCTATTTTATATGTGCACACATATACACCCACAAA [CACACA_site1130],10.1
10,TTCTTTTTGAAACACACACACACAAGAAAATATATA [CACACA_site3110],10.8
11,AGATACAAGCACTATAGTACACATACTAAAAATATA [XGTACX_site5849],9.73
12,TATAATTAAAATTTGTGTACGTATGACAAAACATTT [XGTACX_site7072],9.56
13,TTTCCTTACCCTTTCCTGGTGTAGAAATTATACTCT [TGCATGCA_negctrl_site116],9.61
14,AAAAAAATAACAAAAGTGCATTTTTATGAGTTATCT,9.65
15,ATATATAATTAATAAAGTACATTAATTATTTCTTTT [XGTACX_site3034],9.44
16,TATGTTATATTGGACACACACAATAAACATTATGTA [CACACA_site1657],9.94
17,ATATATATATATAAGCGTACGCGTAGTTAAATTAAT [XGTACX_site7693],9.92
18,ACAAAAAAAATAAGCACACATATATATATATATATA [CACACA_site816],9.91
19,AAATGAAAAATAAGGAAAAAAAAAAAAAAAAAAAAA [CACACA_negctrl_site1715],8.63
20,TAAAATATTTCAAAGGTGCAATGATAATTTAAGACG [GTGCAC_site9609],9.61
21,ATATTGACAGGAAAAATTTTCTTTGAATCTTTAAAA [CACACA_negctrl_site1191],9.29
22,ACGATAACATTTTTACGTACATATATTTTCACGGAG [XGTACX_site8764],9.59

row,Sequence,gcPBM binding intensity (ln)
1,TATTCAATACTTAATGCACACAATAAAAAAAATATG [CACACA_site2467],9.72
2,TACATGATAAGATGTAGTACATAAAAGAATAAATTA [XGTACX_site787],9.8
3,TTTTCAAAAATATATACACACATGCATATTACGGTG [CACACA_site775],9.77
4,CCACTAATTATGTGCACACAAATTAAAGGTCTACAA [CACACA_site4259],10
5,GAAATAATTTTTATTTGTACACACATACATATATAT [XGTACX_site1862],10.3
6,AAATTTTATAAAGGAACACACATTTTTTTTTTTTCT [CACACA_site2368],9.65
7,TTATTCATTTCGAAAAGTACAAATTCTGTTTATTAT [XGTACX_site6892],9.6
8,ATAATATTTATAAATTGTACTAATGTTCAATAATTA [XGTACX_site7284],9.43
9,TTTTGTCGGAAATCGGATAAGAAGAAAAAAAATAAT [GTGCAC_negctrl_site594],9.49
10,AAAAAAAAAAAATACGTGCACTATGATATATTATAT,9.81
11,TTCACTCCATATTATACACACACACTAATGAAAAAA [CACACA_site8991],10.3
12,AAAAAAAAAAAAAGTACACACATACATATAAATATA [CACACA_site8533],9.9
13,CATTTTTTGCTTTCAACACACATACAATATATATAA [CACACA_site6127],9.75
14,AAGGATCACGCACAAACACACATATTTATATTTATA [CACACA_site6405],9.95
15,CTTTATTTTTTATACACACACAATATGTATATATAT [CACACA_site3550],9.92
16,TTTTTATTTTTTGAAACACACACAAAAAAAATGATA [CACACA_site8564],9.72
17,AAACAAATATATATATGTACTTATAAAAAAAAAAAT [XGTACX_site2211],9.77
18,TAAGGATATATATATTCACACACACCGGGAAATATA [CACACA_site8020],10.8
19,TTTTTGTATTCTTCTTCTTCCAGACTACATTATGTC [XGTACX_negctrl_site235],9.82
20,ATATATTTAAAATTGACACACATTTAATGACATTTT [CACACA_site3112],9.69
21,TATATATGGAAAAGAGTCAAAAAGAAAAAAGAAAAA [CACACA_negctrl_site1374],9.44
22,TATGAAATATTTATACACAGAACTTCATAATTTTCA [TGCATGCA_negctrl_site509],9.47

row,Sequence,gcPBM binding intensity (ln)
1,TGGTGATATACGAAATGTACGCAAATCACAAAATAA [XGTACX_site8836],9.61
2,TCTTTAACAAGTTAAACACACATACCTATATACATA [CACACA_site7237],9.75
3,AAATAAAAATTAAAAAAATAGAAACGAATTGAATGC [TGCATGCA_negctrl_site365],9.98
4,CGCGTATAACGAAATTGTACAAAAAAAATTAAACAT [XGTACX_site6813],9.66
5,AATTAAACTTTGTTTTTGTTTTTTTTTTTTATATTT [CACACA_negctrl_site1316],9.47
6,ATATATATAAATATATGTACATAAATATATTTGTAA [XGTACX_site6715],9.79
7,TAATATATATAACATATACACACGTTCATATATATA [CACACA_site462],9.73
8,TATTTGCAATATTATACACACATTAGATATTGCAAA [CACACA_site7565],9.7
9,AACAAATTAATTCTAGTGCAGGACGTATTTGTGTAC [GTGCAC_site9907],9.79
10,AAAAAAAAAAAAAAATGTACATATATAATATTTATA [XGTACX_site5117],9.5
11,TACAAAATGTTATATCAATATAGATAAAAAAATGAA [XGTACX_negctrl_site285],9.69
12,AATTTTGAGATGTGGTGTACACAAAATTAGTTAGAC [XGTACX_site7033],9.87
13,TCAACGATCACTCGGTGTACTATAAATGAGAGAATT [XGTACX_site1820],9.42
14,ATTAAATTAAAATAATGTACTTAATACTTTTGCTTA [XGTACX_site8404],9.44
15,AACAATTTTTAAAGGTGTACAATATGTATATAAGAA [XGTACX_site254],9.88
16,ATATATATATATAAAGGTACACATTTATTAAATATA [XGTACX_site7102],9.7
17,TACAATATAATTTAATGTACATGTGAATATATATAT [XGTACX_site4675],9.66
18,TTAAAAAGAGGTGACACACACATATAAATCTAAATC [CACACA_site3738],10.5
19,TAATATACTATAAATACACACAAGTGTACATACTTC [CACACA_site983],9.88
20,TATTAAAAGGTGAGTACACACATATCTGAGTATATA [CACACA_site5192],9.85
21,TTGTGCTAAACAAAAAAAAATATATATAAAAAAATA [XGTACX_negctrl_site388],9.42
22,ATATGTATATAATAAGAACACACATATATTTAATTT [CACACA_site8961],9.96
